Assay results from paper PMC12136788.
The other results are listed elsewhere or left out.

T1: UNK ZnF1-3 (human, UniProt Q9C0B0 31-174)
T1 sequence: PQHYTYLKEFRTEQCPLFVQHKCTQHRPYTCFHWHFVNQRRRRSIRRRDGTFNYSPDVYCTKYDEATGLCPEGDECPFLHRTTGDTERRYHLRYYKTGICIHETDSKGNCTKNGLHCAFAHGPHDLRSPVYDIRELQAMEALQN

B1: chr8:101931661:101931662:-_ENSG00000164924_ENST00000353245|hu_mus|FALSE|FALSE (ssRNA)
RNA: GGGAGUUCUACAGUCCGACGAUCGCUUCCUAAGUUAGAAAACUCCAUAGACCAAAAUUAUAAAUGGAACACAUUACCUUUUGCCAAUCACCCCCCACCCCAUAAAAGUCCACUUCAAUUGUUGAGGAGUAAGGGGAAAAUGUGCAACAGAGGAUUGAGCAUCA
B2: chr11:87793471:87793472:-_ENSMUSG00000020483_ENSMUST00000020775|mus_mus|mus_mus_mus_hu_False|28_98 (ssRNA)
RNA: GGGAGUUCUACAGUCCGACGAUCUGGACUUGAAAAUAAAAAAAAUAGCUGGAUCCCCCACCCCCCCACAUUGUCAACCCUACACGAGAGUUUUGAAGGCGACUCAUGAAUCAGCAGAGCUCAAACGGCAAUGACCACCCCACCCAACAGAGGAUUGAGCAUCA
B3: chr2:179515052:179515053:+_ENSMUSG00000000305_ENSMUST00000000314|mus_hu|mus_mus_mus_hu_False|38_38 (ssRNA)
RNA: GGGAGUUCUACAGUCCGACGAUCGCUGUCCCAUGCAGUCACCGUGAACGCCACCUGCUCGGAGGGGACCUGCAGCUCCCGGGUGGCGAAGACUGUCCCAUCCGCCCCAACUUUGAAGUCCAUGCUGUUGGUCUCAUAUUGUGUCAACAGAGGAUUGAGCAUCA
B4: chr3:179287964:179287965:+_ENSG00000136518_ENST00000429709|hu_hu|hu_hu_hu_mus_True|18_88 (ssRNA)
RNA: GGGAGUUCUACAGUCCGACGAUCCUUGAGUGGUGAGAUGGCCUCCAUAUUCUCCCUGGGCACGCGGAGGGCAUUGGUGUCUAUGUAGUAGGUGGGCCCGCCCUGCUUGCCUUUGUCGCCAUCUAUUUCCAUCAUUGUACUUCCCAACAGAGGAUUGAGCAUCA
B5: chr13:74460350:74460351:-_ENSMUSG00000021577_ENSMUST00000022062|mus_mus|motif|central (ssRNA)
RNA: GGGAGUUCUACAGUCCGACGAUCCACUGCACAAGAAUAAAGAGACAAAGUCUGGCGCAACUCAAUCCCUUACAGCAAGUACGGCCAAGCUGUUGAUCACAAUCUAUGAAGUGACUCCUUGUUCAUGAGAGCAGAAUUUUACCACAACAGAGGAUUGAGCAUCA
B6: chr3:148802587:148802588:-_ENSG00000071794_ENST00000310053|hu_mus|hu_hu_hu_mus_False|38_78 (ssRNA)
RNA: GGGAGUUCUACAGUCCGACGAUCUCCAACAACUUGUCCUCUCAUAGUUCCAAAUAAAACGGAAUCUUGCUCUUCAUCACUCGUUAGGAAGUCAUCUGGAGGGAUAAUGUCUUGGAAUUCAAAAUGUGGCAAGAAAGUUGAGUACAACAGAGGAUUGAGCAUCA

molecular target: T1, UNK ZnF1-3; test: nsRBNS (natural sequence RNA bind-n-seq); RBNS binding buffer (assumed for nsRBNS): 25 mM Tris pH 7.5, 150 mM KCl, 3 mM MgCl2, 0.01% Triton X-100, 500 ug/ml BSA, 20 U/ml SUPERase-In, 4 C; UNK is unkempt and MSI1 is Musashi-1; names of the RNAs are library labels; protein concentration not given here; high values mean tight binding

Binder	binding signal [enrichment R]
B1	1.2
B2	3.19
B3	0.751
B4	0.478
B5	1.15
B6	1.44
